# Source: article PMC4336329 (PLoS ONE, 2015)
# The campaign covered roughly 310,000 compounds. About 2,200 (0.71%) showed an effect of 50% or more. The effect is printed as a negative number. The list shows a part of the results.
# Biological target: human ether-à-go-go-related gene (hERG) potassium channel (human, UniProt Q12809)
# Assay: primary screen, population patch clamp on CHO cells stably expressing hERG
# human ether-à-go-go-related gene (hERG) potassium channel, sequence (Q12809 whole entry, looked up): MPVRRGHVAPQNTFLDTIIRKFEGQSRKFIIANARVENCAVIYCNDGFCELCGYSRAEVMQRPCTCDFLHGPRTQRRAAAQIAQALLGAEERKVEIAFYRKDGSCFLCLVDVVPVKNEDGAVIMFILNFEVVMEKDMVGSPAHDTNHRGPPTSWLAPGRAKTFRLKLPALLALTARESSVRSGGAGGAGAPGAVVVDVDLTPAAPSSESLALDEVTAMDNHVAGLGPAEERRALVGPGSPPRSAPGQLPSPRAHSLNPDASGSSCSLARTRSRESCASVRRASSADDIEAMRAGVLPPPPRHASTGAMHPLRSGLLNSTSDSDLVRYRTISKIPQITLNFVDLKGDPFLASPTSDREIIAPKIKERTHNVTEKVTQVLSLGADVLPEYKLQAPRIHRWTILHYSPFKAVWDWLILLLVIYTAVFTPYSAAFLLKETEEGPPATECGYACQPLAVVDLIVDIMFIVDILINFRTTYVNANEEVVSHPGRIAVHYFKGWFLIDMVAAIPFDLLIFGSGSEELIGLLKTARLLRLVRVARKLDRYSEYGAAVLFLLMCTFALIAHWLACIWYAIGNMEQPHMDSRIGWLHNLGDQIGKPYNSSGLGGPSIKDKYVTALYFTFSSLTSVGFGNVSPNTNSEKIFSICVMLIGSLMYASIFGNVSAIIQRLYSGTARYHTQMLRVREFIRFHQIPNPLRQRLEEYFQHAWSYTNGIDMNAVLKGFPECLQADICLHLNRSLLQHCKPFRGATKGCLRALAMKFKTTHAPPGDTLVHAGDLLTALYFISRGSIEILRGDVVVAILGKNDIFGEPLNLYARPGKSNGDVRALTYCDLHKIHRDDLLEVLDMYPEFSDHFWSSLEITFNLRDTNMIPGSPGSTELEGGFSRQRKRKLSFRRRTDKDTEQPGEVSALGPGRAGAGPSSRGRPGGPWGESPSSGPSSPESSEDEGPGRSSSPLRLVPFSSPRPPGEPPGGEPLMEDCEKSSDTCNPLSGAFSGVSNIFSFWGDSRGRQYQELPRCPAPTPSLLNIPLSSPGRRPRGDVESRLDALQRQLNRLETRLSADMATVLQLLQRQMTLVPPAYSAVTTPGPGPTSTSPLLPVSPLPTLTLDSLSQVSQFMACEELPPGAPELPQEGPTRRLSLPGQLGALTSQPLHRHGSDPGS
row,SMILES,"hERG current change (%, negative = inhibition) at 1uM [%]"
1,C=CCOCCN(CC)CC,-16.8
2,O=C(NCCCn1ccnc1)c1cc(-c2cccnc2)nc2ccc(Br)cc12,0.981
3,O=C(N/N=C/c1ccccn1)c1[nH]c2ccc([N+](=O)[O-])cc2c1-c1ccccc1,50.2
4,O=C(Nc1ccnn1C1CCN(Cc2ccccc2OC(F)F)CC1)c1cccc(F)c1,-1.37
5,Cc1cnc(NC(=O)Nc2ccc(OCc3ccccc3)cc2)c(Br)c1,12
6,CC1CCCCN1CCCNC(=O)CN1C(=O)c2cccnc2Oc2ccccc21 (stereo not drawn),9.38
7,CCCCCn1c(CN2CCN(c3cccc(Cl)c3)CC2)nc2c1c(=O)[nH]c(=O)n2C,-5.98
8,COc1ccc(-c2ccccc2)cc1NCc1ccccc1C,5.31
9,O=[N+]([O-])c1ccc(NCCCN2CCOCC2)c([N+](=O)[O-])c1,-13.6
10,CC1=NNC(=O)C1CC(=O)N/N=C(/C)c1cccc([N+](=O)[O-])c1 (stereo not drawn),-0.487
11,C=CCNC(=S)Nc1ccc(F)cc1F,0.0017
12,O=C(NC1C=CS(=O)(=O)C1)c1ccccc1 (stereo not drawn),15
13,Cc1ccc(OCC(=O)Nc2cccc(S(=O)(=O)N3CCCCC3)c2)c([N+](=O)[O-])n1,9.92
14,O=C(NCc1ccccn1)c1ccc(Cn2cc(C(F)(F)F)ccc2=O)cc1,20.4
15,CCCCCn1cnc2c(sc3nc4c(cc32)CSC(C)(C)C4)c1=O,3.04
16,O=C(N/N=C/c1ccc(COc2ccc(Br)cc2)o1)c1ccco1,8.04
17,COc1ccccc1NC(=O)c1ccc2c(c1)C(=O)N(c1ccccc1OC)C2=O,14.4
18,COc1ccc(CNC(=O)CCCC(=O)Nc2cccc(Br)c2)cc1,8.73
19,CCCCc1cc(=O)oc2cc(OCC(=O)N3C[C@H]4C[C@@H](C3)c3cccc(=O)n3C4)ccc12,7.26

row,SMILES,"hERG current change (%, negative = inhibition) at 1uM [%]"
1,Cc1cc2c(cc1S(=O)(=O)N(C)C1CCCCC1)OCC(=O)N2,5.42
2,CSCc1nnc(NC(=O)c2ccc(S(=O)(=O)N(C)C)cc2)o1,13.8
3,N#CCN1CCN(c2ccc(C(F)(F)F)cc2)CC1,3.72
4,CCN(CC(=O)Nc1ccccc1C(F)(F)F)C(=O)c1ccc(N2CCCC2=O)cc1,9.77
5,C=CCOc1ccc(CNn2cn[nH]c2=S)cc1OCC,3.12
6,O=Cc1cn(CC(=O)NCC2CCCO2)c2ccccc12 (stereo not drawn),10.2
7,CCOC(=O)CNC(=O)Cc1ccc(Cl)cc1,10.4
8,COc1cc(CN2CCC(C)CC2)ccc1OCc1ccccc1.O=C(O)C(=O)O,-3.21
9,CC(C)(C)c1ccc(OCC(=O)O)cc1,12.3
10,COc1ccccc1N1CCN(C(=O)c2cc3c(s2)CCCCC3)CC1,3.71
11,CCOC(=O)C/C(=N\Nc1ncnc2ccccc12)c1ccccc1,15.7
12,CCCOC(=O)C1=C(C)NC(=O)NC1c1cc2c(cc1Br)OCO2 (stereo not drawn),8.29
13,O=C(Nc1cnc2ccccn2c1=O)c1ccc(Cl)cc1,-9.09
14,COc1ccccc1/C=C/C=N/NC(=O)c1ccco1,12
15,Cc1c(NC(=O)c2ncn[nH]2)cccc1-c1nc2ccccc2s1,14.8
16,CCOC(=O)c1ccc(N=C2SC(C(=O)NCCc3ccccc3)CC(=O)N2C)cc1 (stereo not drawn),20.6
17,COc1cc2cc(CN(CCCO)S(=O)(=O)c3ccccc3Cl)c(=O)[nH]c2cc1OC,2.97
18,CCOCCn1c(CN2CCN(CCO)CC2)nc2c1c(=O)n(C)c(=O)n2C,14.3
19,COC(=O)c1ccc(CSc2nnc(SCc3ccc(C(=O)OC)o3)s2)o1,3.46

row,SMILES,"hERG current change (%, negative = inhibition) at 1uM [%]"
1,Cc1cc2cc(C#N)c(SCC(=O)Nc3nonc3C)nc2cc1C,6.61
2,COc1ccc(C(=O)NC(=O)Nc2ncccc2C)cc1,8.92
3,CS(=O)(=O)Cc1cc(N2CCCC2)nc(-c2ccccc2)n1,8.23
4,O=C1OC(N2CCN(C/C=C/c3ccccc3)CC2)c2ccccc21 (stereo not drawn),13.2
5,O=C(Nc1ccccc1OC(F)F)c1ccc(-n2cncn2)c([N+](=O)[O-])c1,13
6,COc1cccc(OCCOc2ccc(/C=C3/SC(=S)NC3=O)cc2)c1,18
7,NCCOc1cnn(-c2ccccc2Cl)c(=O)c1Cl,9.96
8,CCc1[nH]nc(C(=O)N2CCCC(CNS(=O)(=O)c3cccs3)C2)c1C (stereo not drawn),12.6
9,CN(CC(=O)Nc1ccc(F)c(F)c1F)C(=O)c1ccc(-n2cncn2)c([N+](=O)[O-])c1,8.89
10,O=C1c2ccccc2NC(c2ccncc2)N1c1ccccn1 (stereo not drawn),-2.04
11,COC(=O)C1CCN(S(=O)(=O)c2ccc(OC)cc2)CC1,5.02
12,Oc1ccccc1/C=N/Nc1cc(N2CCCC2)nc(N2CCCC2)n1,7.88
13,O=c1[nH]c(C2CCN(S(=O)(=O)c3ccc(C(F)(F)F)cc3)CC2)nc2c1nnn2Cc1ccccc1,16.6
14,Cc1ccccc1CN1CCN(C(=O)c2ccc(S(=O)(=O)NCc3ccco3)cc2)CC1,0.221
15,N#Cc1c(-c2ccc(F)cc2)cc(-c2cccnc2)nc1N,9.44
16,Cc1cc(NC(=O)c2coc(=O)c(Br)c2)ccc1C(C)C,9.1
17,COC(=O)N/N=C/c1ccccc1Cl,15
18,CCCCN1C(=O)C(=O)N(CC(=O)Nc2cccc(C(C)=O)c2)C1=O,4.58
19,O=C(Nc1ccc(C(=O)N2CCCCC2)cc1)c1cccs1,10.3
